Experimental data as given in PMC4336329 (PLoS ONE, 2015).
In all, about 310,000 compounds went through this assay and about 14,000 (4.5%) showed an effect of 50% or more. Effects have a minus sign here. The list shows a part of the results.

target: human ether-à-go-go-related gene (hERG) potassium channel (human, UniProt Q12809); assay: primary screen, population patch clamp on CHO cells stably expressing hERG
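Note: peak tail current of the secondary pulse compared with the same well before compound.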

Chain of human ether-à-go-go-related gene (hERG) potassium channel (Q12809 whole entry, looked up): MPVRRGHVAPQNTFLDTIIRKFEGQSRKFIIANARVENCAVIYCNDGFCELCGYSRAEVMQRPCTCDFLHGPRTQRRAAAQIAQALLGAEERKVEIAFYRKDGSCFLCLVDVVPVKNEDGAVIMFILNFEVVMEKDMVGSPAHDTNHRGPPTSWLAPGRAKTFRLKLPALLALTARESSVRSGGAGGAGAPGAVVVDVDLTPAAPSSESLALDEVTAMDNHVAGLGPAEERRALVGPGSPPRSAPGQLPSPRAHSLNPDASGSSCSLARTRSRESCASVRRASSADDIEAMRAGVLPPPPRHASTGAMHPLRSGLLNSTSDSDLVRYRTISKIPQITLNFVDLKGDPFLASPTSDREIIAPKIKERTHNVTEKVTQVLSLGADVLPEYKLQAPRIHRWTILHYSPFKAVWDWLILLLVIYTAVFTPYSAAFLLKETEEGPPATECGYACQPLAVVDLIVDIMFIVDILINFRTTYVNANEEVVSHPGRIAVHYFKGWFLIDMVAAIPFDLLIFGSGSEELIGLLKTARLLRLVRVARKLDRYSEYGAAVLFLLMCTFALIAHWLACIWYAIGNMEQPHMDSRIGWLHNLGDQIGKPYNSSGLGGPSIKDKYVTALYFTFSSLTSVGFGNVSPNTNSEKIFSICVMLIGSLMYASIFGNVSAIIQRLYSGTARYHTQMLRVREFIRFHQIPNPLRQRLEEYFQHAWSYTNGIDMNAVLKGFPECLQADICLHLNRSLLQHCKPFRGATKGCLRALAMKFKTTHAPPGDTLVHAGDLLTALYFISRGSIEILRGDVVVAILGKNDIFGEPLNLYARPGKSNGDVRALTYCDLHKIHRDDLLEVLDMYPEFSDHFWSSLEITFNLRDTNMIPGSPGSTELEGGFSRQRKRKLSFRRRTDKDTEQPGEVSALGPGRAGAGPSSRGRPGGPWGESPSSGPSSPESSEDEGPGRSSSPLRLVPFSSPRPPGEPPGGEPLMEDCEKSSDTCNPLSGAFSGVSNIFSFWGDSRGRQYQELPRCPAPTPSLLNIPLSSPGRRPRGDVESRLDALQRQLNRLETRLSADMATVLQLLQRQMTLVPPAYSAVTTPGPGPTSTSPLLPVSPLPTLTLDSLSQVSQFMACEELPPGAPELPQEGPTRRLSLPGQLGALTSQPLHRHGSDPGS

Structure (SMILES)	hERG current change (%, negative = inhibition) at 10uM [%]
CCOc1ccccc1C(=O)N1CCN=C1SC	15
COc1ccc(C(=O)Nc2ccc(Cl)cc2C(=O)NCc2ccco2)cc1OC	-26.9
CCOc1ccc(NC(=O)CN(C)C(=O)CCCc2nc3ccccc3c(=O)[nH]2)cc1OCC	14.4
CCOC(=O)CNC(=O)c1sc2ncnc(N3CCc4ccccc4C3)c2c1C	-36.6
O=C(NC(=S)Nc1ccc(N2CCOCC2)cc1)c1ccc(Cl)cc1	11.1
CCOc1ccccc1-n1cnc(C#N)c1N	8.68
O=C(NC(=S)Nc1cccc(CO)c1)c1ccc(-c2ccccc2)cc1	10.4
COc1cc(C)c(CN2CCSCC2)cc1C	10.1
Cc1nc([N+](=O)[O-])c(C(=O)O)n1C	9.89
N#C/C(=C/c1ccc(-c2cc([N+](=O)[O-])ccc2Cl)o1)C(N)=O	1.62
C=CCc1ccccc1OCC(O)CN1CCN(CCO)CC1.Cl (stereo not shown)	11.3
Cc1ccc(S(=O)(=O)c2nc(N3CCOCC3)sc2Cl)cc1	-22.7
CC(C)N(CC(N)=O)c1ncnc2sc(-c3ccccc3)cc12	-16.7
Cc1nc2c(-c3ccccc3)cnn2c(N)c1-c1ccccc1	19
Cc1ccc(C(=O)CCNc2ccc(Cl)cc2)o1	-9.13
CCOC(=O)COn1c(SCC(=O)OCC)nc2ccccc2c1=O	-23.5
COc1ccc(F)cc1S(=O)(=O)N1CCN(C(=O)c2ccco2)CC1	12.4
COc1ccc(CN(C)S(=O)(=O)c2nnc(NC(=O)c3cccc(F)c3)s2)cc1OC	19.9
CC1CC(=O)c2cnc(N3CCOCC3)nc2C1 (stereo not shown)	-4.13
Cc1cc(C)c(S(=O)(=O)NCC2CCC(C(=O)NCc3ccccn3)CC2)c(C)c1 (stereo not shown)	-47
NN1C(=O)/C(=C\c2ccco2)SC1=S	-1.9
Cc1ccnc(NCc2ccccc2O)c1	14.6
NS(=O)(=O)c1cccc(NC(=O)CN2CCCc3ccccc32)c1	9.68

Structure (SMILES)	hERG current change (%, negative = inhibition) at 10uM [%]
c1ccc(CN2CCN(c3ncnc4nc[nH]c34)CC2)cc1	-3.17
CCOc1ccc(NC(=O)CN(C)C(=O)C2CSC3(C)CCC(=O)N23)cc1OCC (stereo not shown)	-7.18
COc1ccccc1CNS(=O)(=O)c1ccc(Br)s1	-10.8
CN1CCN(C(=O)c2ccc3c(c2)N(Cc2ccccc2F)C(=O)c2ccccc2S3=O)CC1 (stereo not shown)	5.05
O=C(/C=C/c1ccc(Cl)cc1)NC1CC2CCC1C2 (stereo not shown)	-53.1
CN1CCCN(S(=O)(=O)c2cccc(C(F)(F)F)c2)c2nc3ccccc3nc21.Cl	5.8
Cc1[nH]n(-c2ccc([N+](=O)[O-])cc2)c(=O)c1C=NCCN1CCN(C(=O)c2ccc(F)cc2)CC1	-73.7
O=C(COC(=O)c1ccc[n+]([O-])c1)Nc1c(Br)cc([N+](=O)[O-])cc1Br	4.49
COC(=O)C1CCN(CC(=O)Nc2ccc(C(=O)Nc3ccccc3OC)cc2)CC1	-37.9
Cc1cc(C(=O)NCCN2C(=O)S/C(=C\c3cccs3)C2=O)ccc1[N+](=O)[O-]	-1.91
CCOc1ccc(NS(=O)(=O)c2ccc(C(=O)N3CCC3)cc2)cc1	-4.09
CC1CC(C)CN(S(=O)(=O)c2ccc3c(c2)oc(=O)n3CC(=O)N(C)Cc2ccccc2)C1 (stereo not shown)	7.04
CC(C)CCn1c(=O)c(C(=O)Nc2ccccc2S(N)(=O)=O)c(O)c2ccccc21	-11.4
Brc1ccc(/C=N/Nc2ccccc2)cc1	17.1
Cc1onc(-c2ccccc2Cl)c1C(=O)N1CCCCC1	13.9
COCC(=O)NC1(c2nnnn2CCOC(=O)Nc2ccc(Cl)cc2)CCCCC1	1
CC[n+]1c(/C=C/C=C/N(C(C)=O)c2ccccc2)sc2cc(OC)ccc21.[I-]	-32.8
Cc1ccc(-n2nnnc2CNC(=O)C2CC(=O)N(c3ccc(F)cc3)C2)cc1C (stereo not shown)	-39.9
O=S(=O)(Oc1ccccc1N1CCCCC1)c1ccccc1	-1.07
CCCCn1c(N)c(N(CC)C(=O)c2cnc(C)cn2)c(=O)[nH]c1=O	4.83
CSC1=NCCN1S(=O)(=O)c1ccccc1	1.28
CC(C)(CO)CNC(=O)CCc1nnc(CCCc2ccccc2)o1	-14.2
COc1cccc(NC(=O)Cn2c(-c3cncs3)nc3ccccc32)c1	-23.9

Structure (SMILES)	hERG current change (%, negative = inhibition) at 10uM [%]
O=C(CCC1CCCC1)N1CCN(C(=O)COc2ccccc2)CC1	-28.8
COc1ccc(NC2CCCN(C(=O)CSc3ccccn3)C2)cc1OC (stereo not shown)	2.08
COC(=O)c1ccccc1NC(=S)NC(=O)CC(C)C	0.413
CCOCC(=O)Nc1cc(C(=O)Nc2ccc(F)cc2)ccc1Cl	29.9
COc1ccc(-c2cc(C(F)(F)F)n3nc(C(=O)O)cc3n2)cc1OC	-4.49
CC(=O)NC(c1ccccc1)c1c(O)ccc2ccccc12 (stereo not shown)	5.99
CC(O)Cc1cn(CC(=O)N2CCN(C(=O)OC(C)(C)C)CC2)nn1 (stereo not shown)	12.8
O=C(Nc1cccs1)Nc1ccccc1Cl	-0.641
O=C(Nc1ccccc1F)c1oc2ccccc2c1NC(=O)C1CC1	17.9
NC(=O)C1Cc2ccccc2CN1S(=O)(=O)c1ccc(Cl)s1 (stereo not shown)	-4.93
Cn1c(N)c(C(=O)CSc2nc(N)cc(=O)[nH]2)c(=O)n(C)c1=O	3.42
CCN1C(=O)c2ccc(-c3nc4ccccc4c(=O)o3)cc2C1=O	-14.9
CC(=O)Nc1ccc2c(c1)N(C(C)=O)c1ccccc1CC2	30.2
C=CCn1c(=O)c2c(nc3n2CCCN3Cc2ccccc2)n(C)c1=O	-3.12
CCOC(=O)C1=C(CSc2nc(CC)c(C)cc2C#N)OC(N)=C(C#N)C1c1ccc(OC)cc1 (stereo not shown)	-1.84
O=C(Nc1ccc(Br)cc1F)C1CCCO1 (stereo not shown)	-6.78
O=C(NC1CCCCC1)c1ccc(N2CCCC2=O)cc1	14.9
Cc1ccc(C)c(NC(=O)C2CC(=O)N(C(C)C)C2)c1 (stereo not shown)	-11.6
CCCc1cc(C(=O)N2CCC(n3nccc3NC(=O)c3ccc(OC)cc3)CC2)no1	-23.1
CC1=C(C(=O)OC2CCCCC2)C(c2ccccc2Br)NC(=O)N1 (stereo not shown)	20.7
c1ccc2c(c1)OCCOCCOCCOCCOc1ccccc1OCCOCCOCCO2	-62.1
CCCCP(=O)(O)c1ccccc1	-3.79
COc1cc(/C=C/c2ccc3cccc(OC)c3n2)c(O)c([N+](=O)[O-])c1	9.97

Structure (SMILES)	hERG current change (%, negative = inhibition) at 10uM [%]
Cc1[nH]c2ccccc2c1SCCN	2.5
CN(c1ccc(Br)cc1)S(=O)(=O)c1ccc2[nH]cc(C(=O)NCCN3CCOCC3)c(=O)c2c1	-9.15
CC(=O)N[C@@H](Cc1c[nH]c2ccccc12)C(=O)OCC(=O)NCc1ccc2c(c1)OCO2	16.2
COCCn1c(=NC(=O)c2cc3ccccc3oc2=O)sc2cc(S(N)(=O)=O)ccc21	-11.9
Cn1nnnc1SCc1cccc2ccccc12	33.2
NS(=O)(=O)c1ccc(N=Cc2c(O)c3ccccc3oc2=O)cc1	8.15
COc1cc(C)c(Cl)cc1S(=O)(=O)n1cnc(C)c1	1.5
COc1ccc(CSCC(=O)N/N=C/c2ccc(OCC(=O)NCc3ccco3)cc2)cc1	-5.97
Cc1ccc(C)c(N2C(=N)S/C(=C\c3ccc(-c4ccccc4C(=O)O)o3)C2=O)c1	24.1
COc1ccccc1-n1cnnc1SC1CCOC1=O (stereo not shown)	4.66
COc1ccc(Cl)cc1S(=O)(=O)NCc1cccs1	-10.3
CCOC(=O)N1CCC(N(CCN(C)C)C(=S)Nc2cc(C)cc(C)c2)CC1	-16.4
CSc1ccc(CNCCCSc2ncccn2)cc1.Cl	-26
O=C(N/C=C/n1cnc2cc(C(F)(F)F)ccc21)c1ccccc1	3.55
Cc1ccc(C)c(-c2csc(N)c2C(=O)OC(C)C)c1	11
CCC(C(=O)Nc1ccc2c(c1)OCCO2)c1ccccc1 (stereo not shown)	13.4
CCOC(=O)c1[nH]c(=O)[nH]c1CSCCO	10.8
COc1cccc2sc(=NC(=O)CS(=O)(=O)c3ccc(F)cc3)n(C)c12	-0.213
CCC(CC)N1CCN(C(=O)Cc2ccccc2)CC1.O=C(O)C(=O)O	12.9
COc1ccc(NC(=O)COC(=O)C2=COCCO2)cc1OC	14.2
CCOc1ccc(CN(C(=O)c2ccccn2)c2ccc(OC)c(Cl)c2)cc1	6.53
O=C(O)CCCCCCCCc1cn(Cc2ccc(C(=O)c3ccccc3)cc2)nn1	19.5
